PubChem BioAssay AID463173 (ICCB-Longwood Screening Facility, Harvard Medical School, 2010)
Screen size: about 52,000 compounds; about 4,300 (8.3%) were called active. No stated cut-off is given here; in the data, active means survival mostly below about 52% (no sharp cut-off); inactive means mostly above about 56%. Some of the results follow.

Each molecule was assayed on DeltatarO mutant (assay: growth inhibition of S. aureus wild type versus tarO mutant, primary screen, teichoic acid synthesis inhibitors, RN4220, OD600 (AID 463173)). Settings: OD600, 18 h, stronger effect = lower value, screened at 18.75 µg/mL (by protocol).

Structure (SMILES) | survival
CCS(=O)(=O)Cc1cccs1 | inactive: 86%
O=C1CC(c2ccccc2)Cc2[nH]c(=O)c(-c3nc(-c4cccc(Cl)c4)cs3)cc21 (stereo not drawn) | inactive: 95%
O=C(CSc1nnc(CNc2ccccc2)o1)N1CCc2ccccc21 | inactive: 98%
Cc1ccc(Cl)cc1N1CCN(C(c2ccc(F)cc2)c2nnc(-c3ccccc3)o2)CC1 (stereo not drawn) | inactive: 55%
N#Cc1cc2cc(Br)ccc2oc1=O | inactive: 97%
COc1ccc(-c2cc(C(=O)N3CCN(c4ccccc4OC)CC3)c3cc(C(C)C)ccc3n2)cc1 | inactive: 82%
COC(=O)c1sccc1S(=O)(=O)N1CCN(c2cccc(C)c2C)CC1 | inactive: 89%
O=C(CSc1n[nH]c(-c2ccccc2)n1)N1CCCCC1 | inactive: 83%
CCC(=O)N1CCc2cc(S(=O)(=O)CCC(=O)N3CCN(c4cccc(C)c4)C(C)C3)ccc21 (stereo not drawn) | inactive: 76%
CCN(Cc1ccc(OC)cc1)c1ccc(-c2nc(-c3ccncc3)no2)cc1[N+](=O)[O-] | active: 41%
Nc1cc(C(=O)c2ccccc2)ccc1N1CCOCC1 | inactive: 110%
O=C(NCCc1ccccc1)c1ccc(Cn2c(SCc3ccc(F)cc3)nc3cccnc32)cc1 | inactive: 95%
Cc1ccccc1Nc1c(-c2ccsc2)nc2c(C)cccn12 | active: 8%
O=C(NCc1cccc(Cl)c1)c1cccn1-c1nnc(N2CCCC2)s1 | active: 37%
Cc1cc(C)c(Cn2c3ccccc3c3cnn(CC(=O)NCCCc4ccccc4)c(=O)c32)c(C)c1 | inactive: 119%
CC1CCN(C(=O)COc2ccc(C(C)C)cc2)CC1 | inactive: 86%
COc1ccc(OC)c(S(=O)(=O)N2Cc3ccccc3CC2C(=O)Nc2ccc(C(C)=O)cc2)c1 (stereo not drawn) | inactive: 63%
Cc1ccc(CNC(=O)c2nc(SCc3cccc(C)c3)ncc2Cl)cc1 | inactive: 117%
Cc1ccc(CNC(=O)c2cn(C)c3ccc(S(=O)(=O)N(C)C4CCCCC4)cc3c2=O)cc1 | inactive: 80%
CCc1ccc(-n2nc3ccc(NC(=O)c4cc5ccccc5o4)cc3n2)cc1 | inactive: 65%

Structure (SMILES) | survival
O=C(CC(c1ccccc1)c1ccccc1)NCc1ccco1 | inactive: 92%
CCOc1ccc(-c2cc3c(=O)n(Cc4nc(-c5cccc(OC)c5OC)oc4C)ccn3n2)cc1Cl | inactive: 187%
O=C(c1ccccc1)N1CCc2cc(CNS(=O)(=O)c3ccccc3Cl)ccc21 | inactive: 78%
COc1ccc(-c2ccc(C#N)c(SCc3ccccn3)n2)cc1 | inactive: 71%
Cc1ccc(-c2nn3c(C)nnc3c3ccccc23)cc1S(=O)(=O)NCCO | inactive: 66%
Cc1cccc(N(CC(=O)NC(C)c2ccccc2)S(=O)(=O)c2ccccc2)c1C (stereo not drawn) | inactive: 65%
CCOc1cc(C(=O)OCc2cc(=O)n3c(C)csc3n2)cc(OCC)c1OCC | active: -1%
CC(=O)Nc1ccc(S(=O)(=O)NCC2CCC(C(=O)NCCCOC(C)C)CC2)cc1 (stereo not drawn) | inactive: 87%
CCCCN(c1ccccc1)c1ncnc2c1cnn2-c1ccc(Cl)cc1 | inactive: 87%
Cc1ccccc1NC(=O)Cn1c(=O)n(Cc2ccc3c(c2)OCO3)c(=O)c2oc3ccccc3c21 | inactive: 61%
Cc1cc(C)cc(C(=O)Nc2cc(C(F)(F)F)ccc2N2CCN(c3ccccc3)CC2)c1 | inactive: 76%
Cc1ccc(-c2cn3cccc(C)c3n2)cc1NS(=O)(=O)c1ccccc1 | active: 41%
O=C(CCC(=O)N1CCOc2ccccc21)NCc1cccs1 | inactive: 70%
Cc1ccc2[nH]c3c(=O)n(CC(=O)N4CCN(c5ccccc5F)CC4)ncc3c2c1 | inactive: 79%
CCN(c1ccccc1)c1ncnc2c1cnn2-c1ccc(OC)cc1 | active: 52%
CC(=O)N1CCCc2cc(S(=O)(=O)N3CCCC(C(=O)Nc4ccc(F)cc4F)C3)ccc21 (stereo not drawn) | inactive: 74%
Cc1cc(N2CCN(C)CC2)nc2ccc(NC(=O)Nc3ccc(F)cc3)cc12 | inactive: 95%
COc1ccc(Cn2c(CNC(=O)Cc3ccc(OC)c(OC)c3)nc3cccnc32)cc1 | inactive: 82%
Brc1ccc(-c2cn3cc(Cc4ccccc4)sc3n2)cc1 | inactive: 64%
CC1CCN(S(=O)(=O)c2ccc3[nH]ccc3c2)CC1 | inactive: 80%

Structure (SMILES) | survival
CCOC(=O)c1ccc(NC(=O)c2noc3c2CCCC3)cc1 | active: 0%
Cn1cc(CCCC(=O)NCc2ccc(F)cc2)c2ccccc21 | inactive: 81%
O=C1NC(NS(=O)(=O)c2ccccc2)(C(F)(F)F)C(=O)N1CCc1ccccc1 (stereo not drawn) | inactive: 78%
CCOc1ccc(-c2cc3nc(C4CCN(C(=O)OC(C)(C)C)CC4)c(C(=O)Nc4cccc(Cl)c4C)cn3n2)cc1 | inactive: 81%
CCOC(=O)CCc1c(C)c2cc3c(c(C)c2oc1=O)OCN(CCc1ccccc1OC)C3 | inactive: 49%
CCOc1ccc(CCNC(=O)c2ccc3nc(N4CCC(C)CC4)sc3c2)cc1OCC | inactive: 61%
CSc1ncc(Cl)c(C(=O)Nc2c(C(=O)c3ccc(C)cc3)oc3ccccc23)n1 | inactive: 76%
CCC(C)n1c(=O)c2sccc2n2c(CCCC(=O)Nc3ccc(F)cc3)nnc12 (stereo not drawn) | inactive: 79%
O=C(Cn1c(=O)n(Cc2ccco2)c(=O)c2sc3ccccc3c21)Nc1ccc(F)cc1F | inactive: 100%
COc1ccc(C(=O)N(Cc2ccco2)Cc2ccccc2F)cc1Cl | inactive: 98%
O=C1CCC(C(=O)Nc2ccccc2)N1 (stereo not drawn) | inactive: 63%
COc1ccc(-c2cc(C(F)(F)F)c(C#N)c(SCC(=O)Nc3cccc(C)c3)n2)cc1 | inactive: 59%
O=C(NCC(c1ccco1)S(=O)(=O)c1ccc(Cl)cc1)c1ccc(C(F)(F)F)cc1 (stereo not drawn) | active: 17%
Cc1ccc(Cn2c(SCc3ccc(C(=O)O)cc3)nc3cccnc32)cc1 | inactive: 96%
O=C1CCCC(O)=C1C=Nc1cccc(C(F)(F)F)c1 | inactive: 74%
COc1cccc(CC(=O)Nc2c(C(=O)N3CCN(c4ccccc4)CC3)oc3ccccc23)c1 | inactive: 73%
CC1CCCCN1CC(=O)N1CCN(C(=O)CN2CCCCC2C)CC1 (stereo not drawn) | inactive: 82%
COc1ccc(Cn2c(CCC(=O)Nc3cc(C)cc(C)c3)nc3cccnc32)cc1 | inactive: 79%
